In PubChem BioAssay (NCI):
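Results reflect a 48-hour exposure of cells in 96-well plates to compound at five concentrations. The concentration for full growth arrest is given as TGI.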 Not every entry of the source has a single result; some have several. This is not the full list of results. An entry can have further records. The tests behind the records often covered other concentration ranges, which the source does not state; a value can be the end of its range.

Columns and labels:
Test in all cases: DTP human tumour cell line panel, 48 h
MDA-MB-435 = system: MDA-MB-435
UACC-62 melanoma = system: UACC-62 melanoma
CAKI-1 renal = system: CAKI-1 renal
COLO 205 colon = system: COLO 205 colon
HCT-116 colon = system: HCT-116 colon
SNB-19 CNS = system: SNB-19 CNS

With `O=C1C(N2CCN(CCOCCO)CC2)=C(Cl)C(=O)c2ncccc21` the TGI (MDA-MB-435) was 3.35 µM and 34.7 µM.
In the case of `COc1cc(/C=C/C(=O)CC(=O)/C=C/c2cc(OC)c(O)c(OC)c2)cc(OC)c1O`, the TGI (UACC-62 melanoma) is reported as 8.09 µM and > 100 µM.
`Cc1ccc2oc(=O)c3c(O)c4cccc(OC5OC(C)C6O[C@@H](c7ccccc7)OC6C5OC5OC(C)C(O)C(O)C5O)c4c4oc(=O)c1c2c34` (stereo partly specified) was tested, and the TGI (CAKI-1 renal) was 690 nM and 22.5 µM, the TGI (COLO 205 colon) was 1.78 µM and > 100 µM and the TGI (HCT-116 colon) was 1.21 µM and > 23.5 µM. For the same molecule, the TGI (SNB-19 CNS) was 320 nM and 7.99 µM.
